Test results from PubChem BioAssay AID1508624 (National Center for Advancing Translational Sciences (NCATS), 2021).
The campaign covered roughly 48,000 compounds. About 120 (0.25%) were called active. About 4% were inconclusive and are not listed. Calls follow the shape of the dose curve; as a rule, active = well fitted activation curve with a large enough effect; inconclusive = small, poorly fitted or top-dose-only effect, or another doubt; inactive = no such curve, though single readings can be large or run the other way. Some of the results follow.

Assay: Primary qHTS for Identification of Small Molecule Activators of Huntingtin-Antisense Promoter Activity; also: nearly all actives have a fitted effect of over 55% in size
Conditions: HEK293 HTT-AS promoter firefly luciferase reporter (activity 0% = vehicle and -100% = no light), 24 h; series mostly up to 57.5 µM; activity change, positive = activation: at the top concentration
In short: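 Firefly luciferase readout (Dual-Glo, 10 min RT) after 24 h, 37 °C compound exposure (final up to 57.5 uM) of HEK293 reporter cells cultured 24 h beforehand; PTC124 at 50 uM final as control inhibitor; activity scaled vehicle 0%, zero RLU -100%.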

Activity change, positive = activation, inactive:
CCC1Oc2ccccc2N(CC(=O)NCc2ccccc2)C1=O (configuration not stated) 20.3%
Cn1c(=O)c(=O)n(C)c2cc(N3CCCC3)c(NC(=O)c3ccccc3Cl)cc21 -7.2%
COc1ccc2nc(N(Cc3cccnc3)C(=O)c3ccc(Cl)cc3)sc2c1 -22.2%
CCS(=O)(=O)N1CCc2cc(C(=O)Nc3cc(C)cc(C)c3)ccc21 12.9%
COC(=O)c1ccc2c(c1)N(CC(=O)Nc1ccc(C)c(C)c1)C(=O)c1ccccc1S2 0.451%
CN1CCC(CNc2ccc3ncc(-c4cccc(OC(F)(F)F)c4)n3n2)CC1 -29.6%
Cc1ccc(C)c(N2CCN(C(=O)NCc3noc4ccccc34)CC2)c1 -23.9%
Cc1cc2oc(C(=O)Nc3sc4c(c3C(=O)NCC3CCCO3)CCCC4)cc(=O)c2cc1C (configuration not stated) -3.23%
Cn1c(=O)c2c(-c3ccc(Cl)cc3)ccnc2n(C)c1=O 2.13%
COc1ccc(OC)c(CCNc2nc3cc(OC)c(OC)cc3c3nc(-c4cccnc4)nn23)c1 -7.44%
CCCCN(CC)CCNC(=O)CN1C(=O)COc2ccc(S(=O)(=O)N3CCOCC3)cc21 -8.78%
O=S(=O)(NCC(c1ccco1)N1CCN(c2ccc(F)cc2)CC1)c1cc(F)ccc1F (configuration not stated) -38.4%
COc1ccc(CCNC(=O)c2ccc3[nH]c(C)c(C)c3c2)cc1OC 2.31%
Cc1ccc(NC(=O)Cn2c(=O)n(CC(=O)NCCc3ccccc3)c(=O)c3ccccc32)cc1 -4.96%
CCc1ccccc1NC(=O)Cn1nnc(C(=O)NCc2cccc(OC)c2)c1N -21%
COc1ccc(CC(=O)Nc2nnc3n2CCS3)cc1OC -16.2%
COc1ccc(CNC(=O)CCc2c(C)nc3c4cccnc4nn3c2C)cc1 -16.3%
COc1ccc(C)cc1-n1c(SCC(=O)NCc2ccco2)nc2c([nH]c3ccccc32)c1=O -28.7%
CCCCN(CC)CCCNC(=O)c1nn(-c2ccc(OC)cc2)c(=O)c2c1c1ccccc1n2C -6.73%
O=C(Nc1ncc(Cc2ccccc2Cl)s1)c1ccc2c(c1)CC(c1ccccc1)OC2=O (configuration not stated) -24.2%
CCCCN(CC)CCCNC(=O)c1sc2nc3n(c(=O)c2c1C)CCCCC3 3.72%
Cc1ccc(CCNC(=O)CCCn2c(=O)c3cccn3c3ccc(F)cc32)cc1 -24.2%
CCn1c(=O)c2sccc2n2c(CCCC(=O)Nc3ccc(Oc4ccccc4)cc3)nnc12 -8.75%
CCOc1ccccc1CNC(=O)CN1C(=O)c2cccnc2Oc2ccc(C)cc21 -24.8%
O=C(Nc1ccc(Br)cc1)c1cc(S(=O)(=O)N2CCc3ccccc32)ccc1F -34.2%
NCC(=O)CCC(=O)O 4.68%
N[C@H](CSC(c1ccccc1)(c1ccccc1)c1ccccc1)C(=O)O -22.4%
CCC(C(=O)O)C1CCC(C)C(C(C)C(O)C(C)C(=O)C(CC)C2OC3(C=CC(O)[C@@]4(CC[C@](C)(C5CC[C@@](O)(CC)C(C)O5)O4)O3)C(C)CC2C)O1 (some centres not stated) -92.3%
COc1ccc(OC)c(NC(=O)N2CCC3(CC2)Oc2ccccc2C(=O)N3Cc2ccccc2F)c1 -19%
CCCCN(C)C(=O)c1ccc2c(c1)NC(=O)C(CC(C)C)N2 (configuration not stated) -1.16%
COc1ccc(-c2noc(CC(=O)N(C)c3cc(Cl)c(OC)cc3OC)n2)cc1 -27.4%
CCN1C(=O)C2(c3ccccc31)c1c(oc3ccccc3c1=O)C(=O)N2CCOC (configuration not stated) -7.99%
Cc1ccc(NC(=O)c2nc(S(C)(=O)=O)ncc2N(Cc2ccco2)Cc2ccco2)cc1 -20.7%
Cc1ccc(-c2nc(-c3cccs3)c(-c3cccs3)[nH]2)cc1 -30.4%
Cc1ccc(OCCSc2nc3ccccc3n2CCC(=O)O)cc1 -5.49%
CN(Cc1ccccc1)c1nc2c(S(=O)(=O)c3ccccc3)nnn2c2ccsc12 -4.23%
Cc1ccc(S(=O)(=O)c2nnn3c2nc(NC2CCCCC2)c2sccc23)cc1C -41.7%
Cc1cc(C)cc(OCC(=O)N(Cc2ccco2)Cc2ccccc2Cl)c1 -39.3%
CN(C)S(=O)(=O)N(CC(=O)NCCSCc1ccc(Cl)cc1Cl)c1ccccc1 -34.5%
CSc1ccc(CCNC(=O)C2CCCN(S(=O)(=O)N(C)c3ccc(F)cc3)C2)cc1 (configuration not stated) -24.2%
COc1ccc(CN(CCN(C)C)c2ncccn2)cc1 -12.6%
COc1ccc(NC(=O)CN2C(=O)C(c3ccccc3)=NC23CCC(C)CC3)cc1Cl (configuration not stated) -34%
COc1ccc(-n2ccnc(NCCc3ccc(S(N)(=O)=O)cc3)c2=O)cc1Cl -23.7%
CC(C)c1ccc(NC(=O)c2cc(S(=O)(=O)NCCc3ccccc3)ccc2F)cc1 -33.4%
Cc1cccn2c(=O)cc(COc3cccc(NC(=O)Nc4cccc(Cl)c4)c3)nc12 -7.32%
O=C1Cc2cc(S(=O)(=O)Nc3cccc(C(F)(F)F)c3)cc3c2N1CCC3 -21.5%
COc1ccc(C(C)C)cc1S(=O)(=O)NCCc1c(C)[nH]c2c(Cl)cccc12 -44.8%
C[C@H](NC(=O)OC(C)(C)C)c1nnc(SCc2ccc(Cl)cc2Cl)o1 -33.4%
COc1cc2[nH]c(=O)n(CCCC(=O)N(C)Cc3ccccc3)c(=O)c2cc1OC -36%
CCOC(=O)c1ccc(N2C(=O)c3n[nH]c(C)c3C2c2ccc(CC)cc2)cc1 (configuration not stated) -21.7%
CCc1ccccc1NC(=O)Cn1nc(C)c2nn(-c3ccc(Cl)cc3)c(C)c2c1=O -40.8%
Cc1ccc(NC(=O)Cn2cc(S(=O)(=O)Cc3ccccc3)c3ccccc32)cc1C -25.6%
COC(=O)c1cc2occc2n1Cc1nc(-c2ccc(Cl)cc2)oc1C 16%
CCc1ccc(S(=O)(=O)c2cn(C)c3ccc(C)cc3c2=O)cc1 -20%
Cc1ccc(-n2nc(C(=O)N(C)c3ccccc3Cl)c3c4ccccc4n(C)c3c2=O)cc1 -5.2%
CCOCCCNC(=O)CN1C(=O)CCn2nc(-c3cccn3C)cc21 -2.48%
CCS(=O)(=O)c1nc(S(=O)(=O)c2ccc(Cl)cc2)c(NCc2ccc(Cl)cc2)s1 -30%
CCOC(=O)c1[nH]c(C)c(CCC(=O)N2CCN(c3ccc(Cl)cc3)CC2)c1C -29.1%
COc1ccc(-c2ccc(=O)n(CC(=O)Nc3ccc(Br)cc3F)n2)cc1 -17.2%
Cn1c(=O)c2c(-c3ccccc3)n(-c3cccc(C#N)c3)cc2n(C)c1=O -16.1%
O=C(O)c1ccc(Nc2ncnc3scc(-c4ccccc4)c23)cc1 8.27%
CCc1ccc2nc(N(Cc3cccnc3)C(=O)Cc3ccccc3)sc2c1 -24.3%
COc1ccc(Cc2c(C)nn(-c3nc(C)c(C(=O)Nc4cccc(C(C)=O)c4)s3)c2C)cc1 -35%
CCC(C(=O)NCc1ccccc1Cl)n1c(=O)c2cccn2c2ccccc21 (configuration not stated) -22.5%
Cc1cc2c(OCC(CNC(C)(C)C)OC(=O)c3ccccc3)cccc2[nH]1 (configuration not stated) -6.24%
Cc1ccc2c(c1)N(C(=O)c1ccc(F)cc1)C(C)(C)CC2(C)c1ccccc1 (configuration not stated) -28.7%
COC(=O)c1cc(OC)c(OC)cc1NC(=O)c1ccc2c(c1)CCN2S(C)(=O)=O 5.6%
CCc1ccccc1N1C(=O)N(Cc2cc(=O)n3ccccc3n2)c2ccccc2S1(=O)=O -33.4%
O=C(NCc1ccccc1)c1c2c(nc3ccccc13)C(=O)N(C1CCCCC1)C2 -9.13%
CC(C)c1ccc(NC(=O)[C@H]2O[C@@H]3OC(C)(C)O[C@@H]3[C@H]3OC(C)(C)O[C@H]32)cc1 2.85%
Cc1nn(CC(=O)N2CCN(c3ccccc3F)CC2)c(=O)c2cccn12 -6.8%
CCN(CC)c1ccc2nc3c(=O)n(C)c(=O)n(C)c3nc2c1 2.62%
Cc1cc(OC(C)C(=O)N(Cc2ccco2)Cc2ccco2)cc(C)c1Cl (configuration not stated) -44.9%
COc1cc(C=CC(=O)O)ccc1O -11.6%
CCn1nc(C)c(CCN(C)C(=O)Nc2cc(Cl)c(OC)cc2OC)c1C -0.211%
O=C(CSc1oc(-c2ccc(F)cc2)nc1S(=O)(=O)c1ccccc1)c1ccc(Cl)cc1 -17.8%
CCN(Cc1ccccc1)C(=O)Cn1c(=O)cc(C)c2c(C)nn(-c3cccc(F)c3)c21 -10.1%
CCOc1ccc(-c2nnc(SCC(=O)NC3CCCCC3)nc2-c2ccc(OCC)c(OC)c2)cc1OC 12.7%
CC(C)c1ccc(NC(=O)C2CCC(CNS(=O)(=O)c3ccc4c(c3)CCCC(=O)N4)CC2)cc1 (configuration not stated) -50.4%
CCN1C(=O)c2ccccc2S(=O)(=O)c2ccc(C(=O)NCc3ccc(C)cc3)cc21 -22%
COc1ccc(CNC(=O)CCn2c(=O)c3cccn3c3ccc(F)cc32)cc1OC -16.7%
CCc1ccc2occ(CC(=O)Nc3nnc(SC)s3)c2c1 -17.2%
CC(=O)CC(c1ccc([N+](=O)[O-])cc1)c1c(O)c2ccccc2oc1=O (configuration not stated) -27.8%
COc1cccc2c1Oc1ncccc1N(C(=O)Nc1cccc(Cl)c1)C2 -11.7%
Cn1nc(-c2ccc(C(=O)Nc3cccc(C(F)(F)F)c3)cc2)c2ccccc2c1=O -9.34%
CCCCC(=O)OC1=C(C(=O)c2ccccc2)N(C)S(=O)(=O)c2ccccc21 -16%
CCCCCCCCNC(C)C(O)c1ccc(SC(C)C)cc1 (configuration not stated) -13.9%
O=C(Nc1ccc(F)cc1F)c1cnn(-c2ccc(F)cc2)c1-n1cccc1 -8.99%
Cc1ccc(CNC(=O)c2cc(S(=O)(=O)N3CCCCCC3)cn2C)cc1 -22.9%
CCOc1ccccc1NC(=O)CN1c2ccccc2S(=O)(=O)c2ccccc21 -20.4%
COc1ccc(CNS(=O)(=O)c2cnc(N)nc2)cc1 -3.42%
Cc1cccc(CNC(=O)c2ccc3c(c2)N(C)C(=O)C2CCCCN32)c1 (configuration not stated) -24.8%
COc1ccc(Cn2ccc3nc(C)c(C(=O)Nc4ccc(OC(F)(F)F)cc4)cc3c2=O)cc1 -32.9%
CCCCC(=O)OC1=C(C(=O)c2ccccc2)N(CC)S(=O)(=O)c2ccccc21 -26.2%
CSc1ccc(CNC(=O)c2cc3cc(S(=O)(=O)N4CCCCC4)ccc3n2C)cc1 -37.3%
O=C(Nc1cccc(-c2nc3ccccc3o2)c1)c1cccc(Br)c1 -7.25%
CCOC(=O)c1c(Nc2cc(C)cc(C)c2)nnc(-c2ccccc2)c1-c1ccccc1 -24.9%
